The list shows a part of the results. Cleavage of a single-stranded DNA pool by Rep nickase domains was read by sequencing at 3 µM enzyme and 37 °C for 1 h; the strands have 90 letters, of which the middle is given. Uncut reads are compared with the no-enzyme pool on a log2 scale; uncut sequences lie near 0, cut ones below; no hit call is given. Shares of all reads are compared; where an enzyme cuts many sequences, the uncut ones exceed 0.
The sequences below were run on T1, Rep nickase domain of Muscovy duck circovirus (assay: uncleaved DNA left, log2 of reads against the no-enzyme library (log2 ratio); higher = less cleavage (more negative = more Rep cleavage of the k-mer); sequences stand for … in CTCGTCCG…ACCGGAGA).
T1 sequence (protein, residues 1-111, tag omitted): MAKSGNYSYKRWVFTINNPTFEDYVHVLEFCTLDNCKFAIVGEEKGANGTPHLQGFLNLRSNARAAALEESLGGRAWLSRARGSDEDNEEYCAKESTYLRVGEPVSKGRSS
Description: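 A pool of 90-nt single-stranded DNAs with seven random bases just before the constant AC of the nick site (name = the seven bases) was cut by 3 µM recombinant His6-SUMO-tagged Rep nickase domain (300 nM DNA, 50 mM HEPES pH 8.0, 50 mM NaCl, 1 mM MnCl2, 1 h, 37 °C, three replicates). Uncut DNA was amplified and sequenced.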

| Sequence | uncleaved DNA left (log2) |
| --- | --- |
| AAAGTCC | 0.0883 |
| AAGGTAG | 0.109 |
| ACAGATA | 0.00562 |
| ATCCTCT | 0.0135 |
| CCCGCTC | -0.0205 |
| GAAAACC | -0.0964 |
| ATTCGAG | 0.0647 |
| TCCCGTC | -0.00744 |
| GGATGTG | 0.107 |
| ATAGCTC | 0.00696 |
| GGCTAGT | -0.0907 |
| ATAGGGT | 0.07 |
| TTCAGTG | 0.00844 |
| GTACTGG | 0.0953 |
| CAAAGTA | -0.0257 |
| CAATGGG | 0.073 |
| ATGAAAG | 0.112 |
| ATAATGT | 0.14 |
| GTGACGT | -0.0386 |
| CTACAAA | -0.0763 |

| Sequence | uncleaved DNA left (log2) |
| --- | --- |
| CCATCGA | -0.0416 |
| TACGGAC | -0.0187 |
| TGATCCA | -0.0408 |
| GCCTGAC | -0.0222 |
| TGATCCG | 0.0165 |
| TATAGTA | -0.178 |
| GTGGAGT | 0.199 |
| CACTGAG | 0.153 |
| GGGTCTC | 0.0539 |
| ATCAGCA | 0.0448 |
| CCTTTTA | 0.0892 |
| CAGGCAT | 0.0261 |
| GCATTGG | 0.0598 |
| TTTGTAG | 0.0654 |
| ACGCACG | -0.0025 |
| ATATGGT | -0.222 |
| ATACACG | -0.0271 |
| TCTGGTG | -0.0132 |
| CCTGAGG | 0.0564 |
| CCGCACG | 0.0973 |

Source: the supplement of paper PMC7826260
